# Measurements taken from the supplement of paper PMC3334620.
# In all, about 33,000 sequences were measured (“E-score (-0.5 to 0.5)”: median about -0.011, highest 2% from about 0.28 on). This is one part of the list.
# Molecular target: T1, Gcr1 (UniProt P07261)
# T1 sequence: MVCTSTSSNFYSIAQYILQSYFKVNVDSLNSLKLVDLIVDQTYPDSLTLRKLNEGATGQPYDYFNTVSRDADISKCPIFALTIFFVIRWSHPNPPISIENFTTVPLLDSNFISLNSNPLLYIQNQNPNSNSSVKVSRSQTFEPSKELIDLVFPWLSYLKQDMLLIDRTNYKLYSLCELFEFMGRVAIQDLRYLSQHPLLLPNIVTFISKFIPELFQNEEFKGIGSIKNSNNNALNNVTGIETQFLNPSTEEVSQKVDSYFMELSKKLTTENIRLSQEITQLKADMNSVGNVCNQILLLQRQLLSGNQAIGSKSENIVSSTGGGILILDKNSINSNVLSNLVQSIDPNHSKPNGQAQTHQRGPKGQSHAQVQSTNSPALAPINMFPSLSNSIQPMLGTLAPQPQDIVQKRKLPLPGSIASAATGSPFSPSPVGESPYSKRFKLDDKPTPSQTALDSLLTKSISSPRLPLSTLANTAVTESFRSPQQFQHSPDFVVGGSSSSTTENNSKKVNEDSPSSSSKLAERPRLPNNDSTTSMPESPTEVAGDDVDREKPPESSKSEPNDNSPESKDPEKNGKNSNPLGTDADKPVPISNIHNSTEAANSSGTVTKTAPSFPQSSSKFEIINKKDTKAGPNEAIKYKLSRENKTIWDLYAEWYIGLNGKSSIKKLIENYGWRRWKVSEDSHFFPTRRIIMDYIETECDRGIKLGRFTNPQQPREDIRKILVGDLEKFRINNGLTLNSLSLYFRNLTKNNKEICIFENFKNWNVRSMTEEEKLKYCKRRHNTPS
# Assay: PBM E-score (8-mer binding enrichment) (E-score (-0.5 to 0.5)); higher = stronger / more preferred TF binding; most listed sequences are background and not binding sites
# Conditions: protein concentration: 100 nM; construct: GST-full length
# Outline: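 Universal all-10-mer Agilent arrays, fresh or stripped once, were converted to double-stranded form by primer extension. GST-tagged yeast transcription factors from PURExpress in vitro transcription/translation, full-length or DNA-binding domain only, were applied at about 100-200 nM and detected with fluorescent anti-GST. After masliner normalisation, the Universal PBM Analysis Suite scored each ungapped eight-base word together with its reverse complement by E-score.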
row,Sequence,PBM E-score
1,CGGTTCCC,0.161
2,ACTATTCA,0.103
3,CGGTGCAC,-0.105
4,CTATAGCC,-0.191
5,CCGTATAC,0.173
6,CCGAGACA,-0.263
7,CATGGCCC,-0.201
8,ATCCGGTG,0.228
9,AAGCGCTT,-0.0906
10,CTAATTAG,0.165
11,AGGGGCCC,0.21
12,GCACAAGC,-0.149
13,CACGATCC,0.155
14,CCGAAGGA,-0.084
15,ATTCAGAA,0.108
16,AGAGCTAC,-0.0587
17,CGGCACTC,-0.187
18,AGCGGATG,0.138
19,ATACACGG,-0.0418
20,GACAACCC,0.0322
21,GACTTTCA,0.0748
22,AAATGATA,0.0389
23,ATGTAAAT,0.116
24,TGATAGCA,0.183
25,CTGTCCGC,-0.0662

row,Sequence,PBM E-score
1,CTGGTAGA,0.113
2,CGTTGTTC,-0.113
3,CAAGTAAA,0.0412
4,CGTGCTAC,0.0665
5,ACCTGGTC,-0.175
6,TCTCGCCA,-0.258
7,GACCACGC,-0.136
8,CCACACGC,0.209
9,ATCTGCCG,0.0926
10,ACAATTTC,0.00093
11,CATTCGGA,0.00656
12,CCATCCAA,-0.121
13,CGGGGTAA,0.0976
14,GTGAATTA,0.0532
15,ACCCCCAG,-0.0743
16,CCAACTTC,0.216
17,GACCAGTA,-0.00358
18,ATATGGTG,0.227
19,CTCTGTAA,0.0466
20,GCTTCCGA,0.386
21,CGTAACAC,-0.101
22,ACAGGCCT,0.0209
23,GGGTGGTA,0.0454
24,CGTTGAAC,-0.256
25,AGCGATAA,-0.02

row,Sequence,PBM E-score
1,ACAGAGGT,0.0543
2,AGCTTCCA,0.458
3,CTTAGAGC,-0.0182
4,ACCTTCTA,0.134
5,GCCCCATA,-0.0303
6,GGAGGCCA,0.128
7,GAGCAATC,-0.286
8,AGAGGCAA,-0.125
9,CAACGGTC,-0.339
10,AGAGGCGA,-0.139
11,ACACGTAC,0.042
12,CATTCTAG,0.111
13,GGGCTAAA,0.00675
14,ATCTCGAG,0.0916
15,CGGGTTTA,0.0611
16,AGCGGGGA,0.113
17,ACACCGCT,-0.108
18,CACCTACC,-0.259
19,CAGAAAAA,0.124
20,CCAACAGA,0.147
21,CCTACGCG,-0.124
22,AGTGCTCG,-0.14
23,GCTAGGAA,0.0555
24,AAATTTCT,0.0745
25,CCTATGCA,-0.218

row,Sequence,PBM E-score
1,ACACTTCG,0.00571
2,CACAGAGG,-0.185
3,GGACCTAC,0.0651
4,CCTGGCCG,-0.154
5,CTCGTGAC,-0.0369
6,ACGACCAA,-0.188
7,AATTTAAA,0.2
8,AGGTAATG,-0.0574
9,GCTTGGAA,-0.114
10,CTGTTAGC,-0.0708
11,GCGGGAGA,-0.277
12,TCATCCAA,-0.114
13,AATGAACT,0.148
14,GCAATTGA,0.0844
15,GCCTGCGA,-0.209
16,CGCTTTAC,-0.0725
17,AACGGGGA,-0.00775
18,GCCAAGGA,-0.1
19,CGTGTTTA,0.0454
20,CGCGGACA,-0.0906
21,CGCGCGCC,-0.0109
22,CAAAACGC,0.025
23,AGATTGAG,0.0698
24,GGAAGTGA,0.173
25,CAATCACC,-0.275

row,Sequence,PBM E-score
1,AAGATGAC,-0.09
2,CACACGGC,0.0286
3,AAAGATGA,0.0521
4,CAGTATAG,0.0323
5,ACTAAATC,0.0396
6,GACACCGC,-0.228
7,CGTTTTTC,0.178
8,CCGCAGAC,-0.0439
9,ATTAAGGG,0.0551
10,CCAAGGCG,0.0109
11,ACAGAGGC,-0.138
12,ATAAGTAC,0.202
13,CCCGCAAG,-0.181
14,ACACCGCA,0.00028
15,AATTTTTA,0.00173
16,AACACCCG,0.0409
17,AATTAGGA,0.315
18,GAGTCAAC,-0.142
19,AAGGATAT,0.0233
20,AAGAAGGA,0.0473
21,TGAGTGCA,-0.161
22,ATGCGCAC,0.0561
23,CTTCGACA,-0.00509
24,ACTAGTAG,0.114
25,AGAACGAT,0.0462

row,Sequence,PBM E-score
1,CTTGAAAC,0.054
2,GCGTGTCA,0.0176
3,GCCCGGGC,0.21
4,ACTCCAGA,0.132
5,CACTCTTA,0.0417
6,GACACCTC,0.0232
7,AAATGTCA,-0.0523
8,GAGAGTGA,-0.261
9,ACGGAGAG,-0.132
10,TACTAAAA,0.103
11,TCCTCACA,0.0112
12,ACCCGTCT,0.00325
13,AGGTCTCA,-0.195
14,ATCGTACA,0.0291
15,CATCCTAG,0.171
16,AGGAAGAG,-0.0854
17,ACACTCTA,0.0457
18,CGGAATAC,0.0977
19,GACCGGAA,0.151
20,CATCCATG,0.0181
21,TGTCGGAA,0.032
22,GATCGCCA,0.0101
23,ATTTTTTA,0.278
24,AATGTATG,0.0141
25,AGCCCGCG,0.00633

row,Sequence,PBM E-score
1,CCGAACGA,-0.192
2,GGGAAACA,0.0935
3,CCTGAGGC,-0.0624
4,CCAGCCCA,-0.156
5,AGGGCGAA,-0.0562
6,AAAGCGTG,-0.239
7,CAAACGAC,-0.0182
8,GTCAGACA,-0.0473
9,ATGCGGCC,0.0413
10,CATACGCG,0.0103
11,GCCATGAA,0.102
12,CCCTTGCA,-0.097
13,GGAGACGA,0.214
14,ACACGGCT,-0.0357
15,AATTGCTG,0.0531
16,ATACCAAC,-0.00844
17,CACCAGAA,0.15
18,TCCTAAAA,0.27
19,GATGACGA,-0.098
20,AGGACACA,0.0847
21,CTTCCGAA,0.13
22,CCAGGCGA,-0.0243
